Reference: ChEMBL document CHEMBL1201862, “PubChem BioAssay data set” (2004)

System: NCI-H322M
Experiment: NCI tumour cell line growth inhibition, 48 h

Compound | GI50
CC(C)c1ccc(C(O)(C(=O)O)c2ccc(C(C)C)cc2)cc1 | inactive: 43.3 µM
Cc1cc(C)c2c(=N)c3ccccc3n(CCCCCCCCn3c4ccccc4c(=N)c4c(C)cc(C)nc43)c2n1 | inactive: 1.12 µM
CC1(C)C(=O)/C(=C/c2ccccc2)C(C)(C)C1(C)C | inactive: 99.8 µM
CCOc1cccc(/C=N/N=C2\C(=O)Nc3c(Cl)cc(Cl)cc32)c1O | inactive: > 100 µM
Cc1cn(C2CC(N=[N+]=[N-])C(C(=O)O)O2)c(=O)[nH]c1=O (stereo not drawn) | inactive: > 100 µM
O=C(CO[N+](=O)[O-])OC/C=C/c1ccccc1 | inactive: > 100 µM
CSC1=N/C(=C\c2ccc(Cl)cc2)C(=O)N1CN1CCOCC1 | inactive: > 100 µM
CCN(CC)CCn1ncc2ccc3c(c(=O)c4cccnc4n3CCN(CC)CC)c21 | active: 0.839 µM
C/C=C/c1c(O)c(=O)c2c(OC)cc(OC)c3c4c(OC)cc(OC)c5c(=O)c(O)c(/C=C/C)c(c1c23)c54 | inactive: 19 µM
CCNC1(c2cccc(C)c2)OC(C)(C)c2cccc3cccc1c23 (stereo not drawn) | inactive: 18.5 µM
CC(C)(C)OC(=O)n1cc(C2CNC(=O)C23CCC(=O)N3Cc2ccccc2)c2ccccc21 (stereo not drawn) | inactive: 22.8 µM
CCOC(=O)/N=c1\ss/c(=N\C(=S)N(C)C)n1-c1ccccc1 | inactive: > 10 µM
c1ccc(COc2cccc3cccnc23)cc1 | inactive: 93.8 µM
C=CCCC(OCOCCOC)c1cc(C)c(O[Si](C)(C)C(C)(C)C)c(C)c1 (stereo not drawn) | inactive: 21.3 µM
Nc1ccc([C@H]2C(=O)N[C@H]3CCC[C@H]32)cc1 | inactive: > 100 µM
O=C(CSCC(=O)N/N=C/c1cccc(OCc2ccccc2)c1)N/N=C/c1cccc(OCc2ccccc2)c1 | inactive: > 74.8 µM
COc1ccc(/N=N/C(=N/NC(=O)c2ccccc2)c2ccc(N(CCC#N)CCC#N)cc2C)cc1 | inactive: 60.4 µM
c1cnc2c(c1)-n1cccc1C1(CCOCC1)NN2 | inactive: > 100 µM
NS(=O)(=O)c1nc(S(=O)(=O)O)c2[nH]cnc2n1 | inactive: > 100 µM

Compound | GI50
COC12OCCN(C)C1=CC(=O)C1=NNC(C)C12 (stereo not drawn) | inactive: > 100 µM
O=[N+]([O-])c1cc(Cl)ccc1S(=O)(=O)c1ccccc1 | inactive: > 100 µM
Clc1cccc(C2ON=C(c3ccccc3)N2C23CC4CC(CC(C4)C2)C3)c1Cl (stereo not drawn) | inactive: > 10 µM
O=C(CCc1nnc(S)[nH]1)Nc1cc(Cl)ccc1Cl | inactive: > 100 µM
O=[N+]([O-])c1cc(Cl)ccc1OCc1ccccc1 | inactive: > 100 µM
CCOC(=O)CSc1nc(N)c2c(-c3ccc(OC)c(OC)c3)c3c(nc2n1)CCCC3 | inactive: > 100 µM
C=C(C)C(=O)OC1CC2=CC(CC3(C)OC3C3OC(=O)C(=C)C13)OC2=O (stereo not drawn) | inactive: 16.9 µM
c1ccc2c(-c3ccnc(-c4c[nH]c5ccccc45)n3)c[nH]c2c1 | inactive: 10.7 µM
CN(N)/N=N/c1[nH]cnc1[N+](=O)[O-] | inactive: > 100 µM
COc1ccc2nc(NC(=O)C(=O)NNC(=O)c3ccncc3)sc2c1 | inactive: > 100 µM
COC(=O)C1=C(O)CCCC(CCC(C)=O)=C1 | inactive: > 100 µM
O=c1c2cc(-c3ccccc3)sc2nc2sc(-c3ccccc3)nn12 | inactive: > 100 µM
O=C(O)C1CCCN1Cc1cc2ccccc2c2ccccc12 (stereo not drawn) | inactive: > 100 µM
COC(=O)[C@]1(C)CCC[C@]2(C)[C@@H](CCC(=O)C(C)C)[C@]3(C=O)O[C@@H]3C[C@H]21 | inactive: 88.1 µM
CCCCCCCC1(c2ccc(N)cc2)CCC(=O)NC1=O (stereo not drawn) | inactive: 50.2 µM
COc1ccc(-c2nc3cc(F)ccc3s2)cc1O | inactive: 45 µM
c1ccc(C/C(=N\Nc2nc3ccccc3o2)c2ccccn2)cc1 | active: 0.0507 µM
NNS(=O)(=O)c1cc(C(=O)O)cc(C(=O)O)c1 | inactive: > 100 µM
Cc1ccc2c(=O)cc(-c3cccc(F)c3)[nH]c2n1 | active: 0.0456 µM

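How tested: cells in 96-well plates exposed to compound for 48 hours at five concentrations. GI50: concentration for 50% inhibition of growth.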 Calls of active or inactive are those of the source. Cut-off read from the data, not from the text of the source: active = GI50 up to about 1.1 µM and inactive = higher.
